Measurements: paper PMC4336329 (PLoS ONE, 2015)
Screen size: about 310,000 compounds; about 14,000 (4.5%) showed an effect of 50% or more. Effects have a minus sign here. The list shows a part of the results.

Each compound was assayed against human ether-à-go-go-related gene (hERG) potassium channel (human, UniProt Q12809) (assay: primary screen, population patch clamp on CHO cells stably expressing hERG).
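Note: peak tail current of the secondary pulse compared with the same well before compound.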

Chain of human ether-à-go-go-related gene (hERG) potassium channel (Q12809 whole entry, looked up): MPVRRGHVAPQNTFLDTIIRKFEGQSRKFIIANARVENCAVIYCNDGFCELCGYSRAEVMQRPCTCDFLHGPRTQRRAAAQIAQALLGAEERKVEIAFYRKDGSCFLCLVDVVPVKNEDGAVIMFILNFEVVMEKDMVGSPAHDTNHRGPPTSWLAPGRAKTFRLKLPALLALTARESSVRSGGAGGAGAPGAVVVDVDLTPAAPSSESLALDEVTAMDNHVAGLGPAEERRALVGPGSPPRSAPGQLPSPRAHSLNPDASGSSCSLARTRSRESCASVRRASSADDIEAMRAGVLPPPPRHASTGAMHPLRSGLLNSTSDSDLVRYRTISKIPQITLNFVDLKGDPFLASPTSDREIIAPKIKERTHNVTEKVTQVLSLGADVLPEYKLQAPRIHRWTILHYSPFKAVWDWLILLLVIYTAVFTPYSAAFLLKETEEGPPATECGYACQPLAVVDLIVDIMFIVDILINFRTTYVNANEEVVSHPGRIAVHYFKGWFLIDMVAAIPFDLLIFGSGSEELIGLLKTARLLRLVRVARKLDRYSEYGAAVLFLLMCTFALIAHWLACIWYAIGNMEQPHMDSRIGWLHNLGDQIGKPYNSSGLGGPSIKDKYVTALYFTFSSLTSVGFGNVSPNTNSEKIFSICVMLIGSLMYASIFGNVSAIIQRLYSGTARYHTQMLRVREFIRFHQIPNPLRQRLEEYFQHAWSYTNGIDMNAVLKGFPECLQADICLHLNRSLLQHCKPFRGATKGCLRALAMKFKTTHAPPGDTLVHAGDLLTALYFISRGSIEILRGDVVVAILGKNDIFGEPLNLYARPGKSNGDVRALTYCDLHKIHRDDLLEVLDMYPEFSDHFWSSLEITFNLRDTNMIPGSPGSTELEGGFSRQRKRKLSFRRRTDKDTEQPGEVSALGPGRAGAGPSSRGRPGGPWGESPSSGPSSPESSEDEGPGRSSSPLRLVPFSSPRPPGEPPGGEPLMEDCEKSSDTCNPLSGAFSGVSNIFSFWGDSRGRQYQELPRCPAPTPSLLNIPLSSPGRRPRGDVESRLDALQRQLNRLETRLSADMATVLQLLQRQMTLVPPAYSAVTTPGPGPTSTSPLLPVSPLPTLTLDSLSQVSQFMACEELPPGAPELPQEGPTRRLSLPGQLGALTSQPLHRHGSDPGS

SMILES	hERG current change (%, negative = inhibition) at 10uM [%]
Cc1ccc(OCc2ccoc2C(=O)O)cc1C	16.6
S=C1SCN(CCN2CCOCC2)CN1Cc1ccccc1	13.9
CCCc1nc(N2CCN(S(=O)(=O)c3ccc(Cl)cc3)CC2)c2c(C)c(C)sc2n1	-17.1
CCN(CC)CCSc1nnc(Nc2ccccc2)n1-c1ccccc1	-75.9
COc1cccc(C(=O)/C=C/Nc2ccc(S(=O)(=O)Nc3nc(C)cc(C)n3)cc2)c1	-1.4
CCOC(=O)C1CCN(Cc2ccc(F)cc2)CC1	-11.8
CCOC(=O)C1CCCN(C(=O)Cc2ccc(OC)c(OC)c2)C1 (centres unmarked)	17.8
CN(C)S(=O)(=O)c1ccc(N2CCCC2)c(C(=O)NC2CCCCC2)c1	-16.6
Cc1nnc2c(NC3CCCC3)nc3ccccc3n12	-37.3
Cc1c(N)c(=O)n(-c2ccccc2)n1C	21.9
CC(C)[C@@]1(c2ccc(Cl)cc2)ON(c2ccccc2C(F)(F)F)C1=O	3.85
CCc1c(C)nc2[nH]nc(-c3ccccc3)n2c1=O	19
CCCCCC(=O)N1CCN(CCN=CC2=C(O)CC(c3ccc(OC)c(OC)c3)CC2=O)CC1 (centres unmarked)	-78.8
O=C(c1ccncc1)c1ccc(N2CCN(C3CC(=O)N(Cc4cccs4)C3=O)CC2)cc1 (centres unmarked)	-79.3
O=C(CSc1ccc([N+](=O)[O-])cn1)Nc1nccs1	3.54
O=C(C1CCCN(S(=O)(=O)c2cccnc2)C1)N1CCN(c2ccccn2)CC1 (centres unmarked)	-1.74
Cc1ccc(N=Nc2ccc3ccccc3c2O)cc1	16.9
O=C(CSc1ccsc1[N+](=O)[O-])NC1CCCC1	-0.976
CCN(CC)CCC#CC(O)(c1ccccc1)c1ccccc1	-45.7
N#Cc1nc(-c2ccccc2F)oc1N1CCCCC1	20.5
CCCc1nc(SCC(=O)c2ccc(F)cc2)c2ccccc2n1	26.9
Nn1c(Cc2ccccc2)nc2cc(Cl)ccc2c1=O	-3.07

SMILES	hERG current change (%, negative = inhibition) at 10uM [%]
COc1ccc(C(CNC(=O)c2cc3ccccc3o2)N2CCCCC2)cc1 (centres unmarked)	-51.6
O=C(C1=C(O)C(=O)N(CCN2CCOCC2)C1c1cccc([N+](=O)[O-])c1)c1cccs1 (centres unmarked)	7.18
NC(=O)c1nsc(C(=O)N(Cc2ccco2)C(C(=O)NCC2CCCO2)c2ccc(O)cc2)c1N (centres unmarked)	12
COc1ccc(S(=O)(=O)N2N=C(C)Oc3ccccc3C2=O)cc1	-1.52
O=C(Cc1ccccc1Cl)N1CCN(c2ccccn2)CC1	-15.9
CC(C)(C)NC(=O)C(c1ccncc1)N(C(=O)c1csnn1)c1ccccc1 (centres unmarked)	-6.21
COc1ccc(NC(=S)NCC2CCCO2)c(OC)c1 (centres unmarked)	12.7
COc1cc(OC)cc(C(=O)N[C@H](C(=O)Nc2nnc(C3CC3)s2)C(C)C)c1	15
COC(=O)c1ccc(Sc2nnnn2-c2ccccc2)c([N+](=O)[O-])c1	-15.3
COc1ccc(C)cc1NC(=O)COC(=O)c1ccc(OCc2ccc(Cl)cc2Cl)c(OC)c1	13.7
CN(C)S(=O)(=O)c1ccc(N2CCCC2)c(C(=O)NNC(=O)c2ccc(F)cc2)c1	15.5
Cn1c(=O)c(Nc2ccc(O)cc2)c2c3c(cccc31)C(=O)c1ccccc1-2	-8.15
CN(C)CCN1C(=O)C(=O)/C(=C(/O)c2ccc(S(=O)(=O)N3CCOCC3)cc2)C1c1ccccc1 (centres unmarked)	7.1
COc1cc(/C=C2\SC(=S)N(NC(=O)c3ccccc3OC)C2=O)ccc1O	14.5
CN(C)S(=O)(=O)c1ccc(C(=O)Nc2nc(-c3cccs3)cs2)cc1	4.51
COc1cc2cc(C)nc(Cc3cccc4ccccc34)c2cc1OC	8.53
CCOC(=O)C1CCN(C(=O)c2cccc(S(=O)(=O)Nc3ccc(C)cc3C)c2)CC1	-35.7
Cc1ccc(-c2csc3ncnc(N4CCN(c5ccccc5O)CC4)c23)cc1	25.8
Cc1ccc2cc(C=C(C#N)C#N)c(N3CCCCC3)nc2c1	15.3
Fc1ccccc1-c1n[nH]c(=S)n1Cc1ccccc1	29.8
Cc1ccc(S(=O)(=O)C2(C(=O)Nc3cccnc3)CC2)cc1	-11.4
O=C(O)Cc1c(-c2ccccc2Cl)c2cc(Br)ccc2[nH]c1=O	5.07
